# Test results taken from PubChem BioAssay AID686970 (National Center for Advancing Translational Sciences (NCATS), 2013).
# Hit rate of the full screen: of about 360,000 compounds, about 6,000 (1.7%) were called active. This list was built around the results that the source calls inconclusive (neither active nor inactive); the mix of calls is not that of the screen. The call rests on the fitted dose curve; in most records, active means well fitted cell-killing curve with a large enough effect; inconclusive means small, poorly fitted or top-dose-only effect, or effect the other way; inactive means flat fitted curve, though single readings scatter. No potency is given beside an inconclusive call; the fits are too rough.
# Assay: qHTS for induction of synthetic lethality in tumor cells producing 2HG: qHTS for the HT-1080-NT fibrosarcoma cell line;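 further: NT is the 2HG producing partner of a matched IDH1 knockdown line; nearly all actives have a fitted effect of over 55% in size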;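 on activity, negative = less viability: 0% = DMSO-treated cells and -100% = media-only wells without cells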
# Conditions: HT-1080-NT fibrosarcoma viability, CellTiter-Glo ATP luminescence, 48 h; activity, negative = less viability: at 46.1 µM (top of the series) unless noted
# Outline: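 Compounds were tested in concentration-response format on HT-1080-NT cells for 48 hours at 37 degrees C. Cell viability came from CellTiter-Glo luminescence; curves were classified by r2, response magnitude and activity.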
# Potency means the concentration at half of the fitted maximal effect; tags describe the fitted curve by direction and shape.
Compound,Potency,"activity, negative = less viability"
COc1ccc(-c2cnc(SCC(=O)Nc3nc(C(C)(C)C)cs3)n2Cc2ccco2)cc1,"inconclusive [cytotoxic, single point]",
Cc1ccc(-c2noc(C3CCCN(C(=O)c4ccc(C(C)(C)C)cc4)C3)n2)o1 (centres undefined),"inconclusive [cytotoxic, single point]",
CSc1nc(NCc2ccccc2)c2c3c(sc2n1)CN(C)CC3,"inconclusive [cytotoxic, single point]",
CCn1c(CNc2ccccc2Cl)nnc1SCC(=O)NCc1ccccc1,"inconclusive [cytotoxic, single point]",
FC(F)(F)c1cccc(CN2CCC(c3cc(-c4cccs4)n[nH]3)CC2)c1,active: 7.31 µM,
CCOc1ccccc1CNS(=O)(=O)c1ccc(-c2cnc(C3CC3)o2)cc1,active: 7.31 µM,
CSc1ccc(C2C(C#N)=C(N)Oc3cc4c(cc32)OCO4)cc1 (centres undefined),active: 17.8 µM,
CCOC(=O)C=Cc1ccc(C(=O)OCC)[nH]1,"inconclusive [cytotoxic, single point]",
COc1ccc(NC(=O)N(C)[C@H]2C[C@H]3c4[nH]c5ccc(-c6ccc(OC)cc6)cc5c4CCN3C(=O)[C@H]2[C@H](C)O)cc1,active: 23.1 µM,
COc1cccc(C2c3[nH]c4ccccc4c3CCN2Cc2ncc[nH]2)c1 (centres undefined),"inconclusive [cytotoxic, single point]",
CCCCCCN1C[C@H](n2cc(COC(=O)c3ccccc3)nn2)[C@@H](O)C[C@@H]1c1ccccc1,,inactive: 1.68%
O=C(CCCn1c(=O)c2ccccc2n(Cc2ccccc2)c1=O)NCc1ccco1,"inconclusive [cytotoxic, partial curve]",
O=C(C1CC(=O)N(C2CCCC2)C1)N1CCN(c2ccccc2F)CC1 (centres undefined),,inactive: 7.94%
Clc1ccc(-c2c[n+](Cc3ccc(Cl)cc3Cl)c3n2CCCCC3)cc1,active: 8.2 µM,
CN(C)CCCN(C(=O)c1ccc2ccccc2c1)c1nc2cc3c(cc2s1)OCO3,"inconclusive [cytotoxic, single point]",
CCOC(=O)c1c(NC(=O)COC(=O)C2CC2C)sc(C)c1C (centres undefined),,inactive: -14.4%
Cc1cccn2c(=O)c3cc(C(=O)NCc4ccco4)c(=N)n(C4CCCCC4)c3nc12,"inconclusive [cytotoxic, single point]",
S=C1NC2(CCCCCC2)N=C1c1ccccc1,,inconclusive: 30.4%
COc1cc(OC)c(OC)cc1CNC(=O)c1cccc(S(=O)(=O)N2CCc3ccccc3C2)c1,"inconclusive [cytotoxic, partial curve, poor fit]",
NC(=O)c1c(/N=C/c2cccnc2)sc2c1CCCC2,,inactive: -24.2%
Cc1ccc(Cn2cc(C(=O)NN)c(=O)c3ccc(F)cc32)cc1,"inconclusive [cytotoxic, single point]",
COc1ccc(Nc2c3c(nc4c(-c5ccccc5)c(C)nn24)CCC3)cc1,,inactive: 16.2%

Compound,Potency,"activity, negative = less viability"
COc1ccc(CSc2nc3ccccc3c(=O)[nH]2)cc1F,,inactive: -11.3%
CN(CC(=O)Nc1ccc(Cl)c(C(F)(F)F)c1)C(=O)c1ccc(N2CCOCC2)c([N+](=O)[O-])c1,active: 23.1 µM,
CCOC(=O)[C@]12CCCC=C1N(CCC1=CCCCC1)C(=O)[C@H](CC(=O)NCc1ccccc1)C2,"inconclusive [cytotoxic, single point]",
COCC(C)n1c(C)cc(C(=O)COc2ccc(N(C)S(=O)(=O)c3ccc(NC(C)=O)cc3)cc2)c1C (centres undefined),"inconclusive [cytotoxic, single point]",
CCCCOc1ccc(CSC(=N)N)cc1Cl,active: 18.4 µM,
CSc1ccc(/C=N/NC(=O)CNc2ccc3ccccc3c2)cc1,"inconclusive [cytotoxic, partial curve]",
O=C(Nc1ccc(Cl)cc1)C1CCN(C(=O)NC2CCCCC2)CC1,,inactive: -2.77%
CSc1ccccc1OC1CCN(Cc2ccccc2)CC1,"inconclusive [cytotoxic, partial curve]",
CC12CCC(=O)N1C(C(=O)Nc1nc3ccccc3s1)CS2 (centres undefined),,inactive: -0.252%
Clc1ccc2[nH]c3c(N4CCC5(CC4)OCCO5)ncnc3c2c1,active: 16.4 µM,
COc1ccc(C2(c3ccc(OC)cc3)NC(=O)N(CC(=O)NC3(C#N)CCCCC3)C2=O)cc1,,inactive: -9.67%
Cc1ccc2c(c1)[C@H]1[C@H](CO2)[C@H](c2ccccc2)[C@]2(C)C(=O)Nc3cc(F)ccc3C(=O)N12,"inconclusive [cytotoxic, partial curve]",
CCCC(C)NC(=O)Cc1ccc(S(=O)(=O)N2CCOCC2)s1 (centres undefined),,inactive: 0.374%
CCC(=O)c1cn(CC(=O)Nc2c(C)cccc2C)c2ccccc12,,inactive: -6.66%
COc1ccc(NC(C)=O)c2nc(C)c(C)nc12,"inconclusive [cytotoxic, partial curve, poor fit]",
O=C(C[n+]1ccccc1)N/N=C/c1cc(Br)cc(Br)c1O,"inconclusive [cytotoxic, single point]",
COc1ccc(NC(=O)c2ccc(CNS(=O)(=O)c3cccc(OC)c3)cc2)cc1,"inconclusive [cytotoxic, partial curve]",
COC(=O)[C@@]12C[C@@H](CC(=O)N3CCN(C(=O)C4CC4)CC3)C(=O)N(Cc3cccc4ccccc34)C1=CCC(C)(C)C2,"inconclusive [cytotoxic, single point]",
C/C(=N\NC(=O)c1ccccc1O)c1cccs1,"inconclusive [cytotoxic, partial curve]",
COc1ccccc1NC(=O)CSc1nnc(COc2ccc(Cl)cc2)n1Cc1ccco1,"inconclusive [cytotoxic, single point]",
CCN(C(=O)c1cccs1)c1nc(-c2ccc(OC)cc2)cs1,"inconclusive [rising, full curve, poor fit]",
CCCCOc1ccc(-c2c(C#N)c(N)nc(SCC(N)=O)c2C#N)cc1,"inconclusive [cytotoxic, single point]",
